# Experimental data reported in the supplement of paper PMC6531468.
# The other results are listed elsewhere or left out. These are enrichments in a pooled selection; single values are uncertain. Each score is taken over the longer molecules that contain the sequence shown.
# System: IMP3 KH1-4
# Assay: 6-mer SELEX enrichment z-score vs GST control; IMP3 is the RNA-binding protein IGF2BP3; higher = more enriched by binding
# Settings: construct: KH1-4 (164-579); SELEX round: R4
# Description: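 SELEX-seq with GST-tagged IMP3 KH1-4 (Pro164-Lys579) and an N40 RNA pool, round 4. 6-mer z-score of sequence-tag enrichment normalised to the corresponding GST SELEX round; RNA k-mers written as DNA (T for U).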
# IMP3 KH1-4, sequence (chain, as listed by the source): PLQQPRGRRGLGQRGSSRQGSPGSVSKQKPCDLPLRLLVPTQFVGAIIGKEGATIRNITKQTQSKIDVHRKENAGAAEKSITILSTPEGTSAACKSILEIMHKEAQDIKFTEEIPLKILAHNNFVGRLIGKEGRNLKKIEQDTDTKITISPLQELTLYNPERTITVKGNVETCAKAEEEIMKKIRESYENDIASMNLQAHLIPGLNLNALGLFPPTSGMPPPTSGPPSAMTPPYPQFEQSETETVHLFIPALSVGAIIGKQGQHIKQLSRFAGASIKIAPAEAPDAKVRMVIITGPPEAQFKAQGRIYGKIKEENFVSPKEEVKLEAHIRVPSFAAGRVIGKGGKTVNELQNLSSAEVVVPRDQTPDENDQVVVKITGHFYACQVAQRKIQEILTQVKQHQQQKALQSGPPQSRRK
row,Sequence,6-mer SELEX enrichment z-score
1,TATCGA,-0.838
2,AATCTT,0.151
3,CCGGAG,-0.679
4,TGGTCA,0.275
5,CCGAAC,-2.53
6,GCTAGA,-0.308
7,GGGAGG,1.2
8,GTCCAG,0.038
9,ATTCCT,1.03
10,AGCTCG,-0.622
11,CGCTGC,0.153
12,TAAAAG,-0.292
13,TCCGCT,0.354
14,ATCACC,0.424
15,TCGGCA,1.87
16,TTGTGT,0.133
17,CTTCCT,0.7
18,AAAATG,-0.035
19,GACCTC,-0.974
20,TTGTTA,0.316

row,Sequence,6-mer SELEX enrichment z-score
1,GGATAG,0.682
2,TAAAGC,-0.819
3,GTGCGT,-1.06
4,ACTACG,0.2
5,TATGTA,0.713
6,TCCAGC,-0.692
7,AATGGG,0.398
8,TAGAAT,0.835
9,AGAGCC,-1.44
10,TTTCTC,0.563
11,CTTGGA,-0.546
12,ATACCC,-1.36
13,ATTTAA,1.59
14,GATCAC,0.506
15,AGGAAG,1.01
16,TTTATC,0.826
17,TGCTTC,0.171
18,CAATGT,0.369
19,TACCGG,-0.14
20,CTCATA,0.6
